Source: US10040767B2, “Benzimidazole derivatives and uses thereof” (Peloton Therapeutics, Inc., priority 2014, dated 2018)

Columns and labels:
[1] = system: 786-O renal cell carcinoma cells; test: 786-O Xenograft Study (in vivo efficacy); set-up: species or system SCID/Biege mice; conditions: 200 mg/kg BID oral gavage, after 20 days of dosing, n=8
From the text: Example 85: In Vivo Efficacy Study
Efficacy studies for Compounds 79, 116, 119 and 183: All compounds were formulated with 10% absolute ethanol, 30% PEG400, 60% water containing 0.5% methyl cellulose and 0.5% Tween80®. About 5×10^6 786-O renal cell carcinoma cells (ATCC® CRL-1932™) in PBS and Matrigel (1:1 in volume) were inoculated subcutaneously in the right flank of SCID/Biege mice at 6-7 weeks of age for tumor development. When the xenografts reached about 200 mm^3 in size, the tumor-bearing mice were randomly grouped into six groups (n=8) and treated by oral gavage with Compound 79, Compound 116, Compound 119, Compound 183 (each at 200 mg/kg BID), and vehicle (BID) for 20 days. Tumor sizes were measured twice weekly in two dimensions using a caliper and the volume expressed in mm^3 using the formula V=0.5×a×b^2, wherein a and b were the long and short diameters of the tumor, respectively.

Human ACSS2 = Human ACSS2 (Homo sapiens, UniProt Q9NR19); test: biochemical
Sequence of UniProt Q9NR19 (Q9NR19 whole entry): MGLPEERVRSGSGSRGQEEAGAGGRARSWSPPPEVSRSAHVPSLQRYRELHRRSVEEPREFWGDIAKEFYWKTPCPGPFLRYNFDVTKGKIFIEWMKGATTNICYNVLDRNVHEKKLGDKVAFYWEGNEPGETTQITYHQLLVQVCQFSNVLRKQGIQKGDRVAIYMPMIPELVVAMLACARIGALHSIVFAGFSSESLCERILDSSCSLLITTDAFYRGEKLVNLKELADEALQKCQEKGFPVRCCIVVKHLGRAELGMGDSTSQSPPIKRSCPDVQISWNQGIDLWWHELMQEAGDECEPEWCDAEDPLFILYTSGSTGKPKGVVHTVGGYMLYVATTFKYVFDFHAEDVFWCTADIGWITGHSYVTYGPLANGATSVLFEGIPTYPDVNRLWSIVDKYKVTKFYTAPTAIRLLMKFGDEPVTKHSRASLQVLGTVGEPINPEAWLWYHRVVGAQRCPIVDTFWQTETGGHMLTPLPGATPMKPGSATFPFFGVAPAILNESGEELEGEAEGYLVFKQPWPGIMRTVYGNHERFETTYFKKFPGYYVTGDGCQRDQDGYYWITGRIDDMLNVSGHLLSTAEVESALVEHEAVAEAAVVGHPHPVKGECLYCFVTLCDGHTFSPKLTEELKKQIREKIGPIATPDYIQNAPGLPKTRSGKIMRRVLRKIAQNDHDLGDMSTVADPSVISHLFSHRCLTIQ

SMILES	Tumor Size (mm^3) Mean ± SEM [1] [mm^3]	IC50 (Human ACSS2) [nM]
CCn1c(C(O)(c2ccccc2)c2ccccc2)nc2ccc(C(=O)NC[C@@H](C)O)cc21 [Compound 79, (R)-1-ethyl-2-(hydroxydiphenylmethyl)-N-(2-hydroxypropyl)-1H-benzo[d]imidazole-6-carboxamide]	281.1 ± 45.2	< 50
C[C@@H](O)CNC(=O)c1ccc2nc(C(O)(c3ccccc3F)c3ccccc3F)n(C)c2c1 [Compound 116]	597.5 ± 72.5	–
CCn1c(C(O)(c2ccccc2F)c2ccccc2F)nc2ccc(C(=O)NC[C@@H](C)O)cc21 [Compound 119]	475.2 ± 60.7	–
C[C@@H](O)CNC(=O)c1ccc2nc(C(O)(c3ccccc3)c3ccccc3)n(C)c2c1 [Compound 183]	668.9 ± 62.5	–
CCc1c[nH]c(-c2ccc3nc(C(O)(c4ccccc4)c4ccccc4)n(CC)c3c2)n1 [Compound 300, (1-ethyl-6-(4-ethyl-1H-imidazol-2-yl)-1H-benzo[d]imidazol-2-yl)diphenylmethanol]	–	50 to 249
